From the supplement of paper PMC10369915
The list shows a part of the results. Rule as the data show it: active = 3.2 or more and inactive = the rest. Most of these values are background signal.

Columns and labels:
Assay in all cases: enrichment score (SH2-bound / input frequency) (ratio); bacterial display of known human phosphotyrosine sites (pTyr-Var adds point mutants) read by sequencing; higher = stronger binding; tyrosines were phosphorylated by kinases first
Conditions in all cases: peptide library: pTyr-Var
SHP2 C-SH2 domain E139D = biological target: SHP2 C-SH2 domain E139D
[1] = biological target: SHP2 C-SH2 domain wild-type
SHP2 N-SH2 domain L43F = biological target: SHP2 N-SH2 domain L43F
SHP2 N-SH2 domain T42A = biological target: SHP2 N-SH2 domain T42A
SHP2 N-SH2 domain T52S = biological target: SHP2 N-SH2 domain T52S
[2] = biological target: SHP2 N-SH2 domain wild-type
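Also: displayed peptides selected on beads carrying the immobilized SH2 domain, with library peptides lacking any tyrosine serving as negative controls.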

Binder	enrichment score (SHP2 C-SH2 domain E139D)	enrichment score [1]	enrichment score (SHP2 N-SH2 domain L43F)	enrichment score (SHP2 N-SH2 domain T42A)	enrichment score (SHP2 N-SH2 domain T52S)	enrichment score [2]
YLQEIYNSNNQ [FGG_Y140]	inactive: 0.913	inactive: 1.27	inactive: 1.05	inactive: 0.991	inactive: 1.17	inactive: 1.28
FLQEIHNSNNQ [FGG_Y140_Y140H_YF]	inactive: 1.12	inactive: 1.02	inactive: 1.01	inactive: 0.931	inactive: 1.19	inactive: 0.844
FLQEIYNSNNQ [FGG_Y140_YF]	inactive: 1.36	inactive: 1.14	inactive: 1.02	inactive: 1.04	inactive: 1.51	inactive: 1.44
PEADKYCLTYA [FGG_Y300_R301C]	inactive: 0.993	inactive: 1.1	inactive: 1.01	inactive: 0.954	inactive: 0.809	inactive: 1.38
PEADKYCLTFA [FGG_Y300_R301C_YF]	inactive: 0.664	inactive: 0.838	inactive: 0.69	inactive: 0.619	inactive: 0.707	inactive: 1.44
YQGGTYSKACT [FGG_Y380_S384C]	inactive: 0.6	inactive: 0.685	inactive: 0.571	inactive: 0.726	inactive: 0.484	inactive: 0.534
FQGGTYSKAST [FGG_Y380_YF]	inactive: 0.604	inactive: 0.725	inactive: 0.509	inactive: 0.597	inactive: 0.627	inactive: 0.764
HSVLQYVGGVM [FGGY_Y136]	inactive: 0.903	inactive: 0.877	inactive: 0.961	inactive: 0.818	inactive: 1.2	inactive: 0.695
DQNVEYKGTVW [FHL1_Y117]	inactive: 0.726	inactive: 0.868	inactive: 0.608	inactive: 1.25	inactive: 0.689	inactive: 0.728
KGEDFYCVTCH [FHL1_Y149]	inactive: 2.91	inactive: 3.14	active: 3.21	inactive: 2.02	inactive: 2.85	inactive: 2.85
KGEDFYYVTCH [FHL1_Y149_C150Y]	inactive: 0.702	inactive: 1.05	inactive: 0.801	inactive: 0.645	inactive: 0.766	inactive: 1.33
AVEDQYYCVDC [FHL1_Y207]	inactive: 1.5	inactive: 1.54	inactive: 1.6	inactive: 1.3	inactive: 1.47	inactive: 1.35
AVEDQYYRVDC [FHL1_Y207_C209R]	inactive: 0.862	inactive: 0.748	inactive: 0.591	inactive: 0.87	inactive: 0.663	inactive: 0.874
VEDQYYRVDCY [FHL1_Y208_C209R]	inactive: 0.899	inactive: 1.15	inactive: 1.05	inactive: 0.944	inactive: 0.93	inactive: 1.08
VEDQFYRVDCF [FHL1_Y208_C209R_YF]	inactive: 0.855	inactive: 0.946	inactive: 0.92	inactive: 0.717	inactive: 0.845	inactive: 1.12
VEDQFYCVDCF [FHL1_Y208_YF]	active: 5.63	active: 4.27	active: 4.89	active: 4.41	active: 4.68	active: 4.68
YRVDCYKNFVA [FHL1_Y213_C209R]	inactive: 1.04	inactive: 1.03	inactive: 0.946	inactive: 0.824	inactive: 0.841	inactive: 1.03
RQNRFYDAKVR [FKBP6_Y188]	inactive: 0.481	inactive: 0.458	inactive: 0.419	inactive: 0.348	inactive: 0.489	inactive: 0.517
CQNRFYDAKVR [FKBP6_Y188_R183C]	inactive: 0.931	inactive: 0.99	inactive: 0.872	inactive: 0.835	inactive: 0.998	inactive: 1.01

Binder	enrichment score (SHP2 C-SH2 domain E139D)	enrichment score [1]	enrichment score (SHP2 N-SH2 domain L43F)	enrichment score (SHP2 N-SH2 domain T42A)	enrichment score (SHP2 N-SH2 domain T52S)	enrichment score [2]
SQDSAYHSGIQ [FLG_Y3940]	inactive: 0.377	inactive: 0.446	inactive: 0.433	inactive: 0.472	inactive: 0.544	inactive: 0.508
KPNMNYDKLSW [FLI1_Y332_R337W]	inactive: 0.918	inactive: 0.924	inactive: 2.43	inactive: 2.58	inactive: 2.7	inactive: 0.932
APQYTYAQGGQ [FLNA_Y1763]	inactive: 0.558	inactive: 0.813	inactive: 0.493	inactive: 0.472	inactive: 0.505	inactive: 0.62
IDQDKYAVRFI [FLNA_Y2388]	inactive: 0.823	inactive: 0.668	inactive: 0.715	inactive: 0.722	inactive: 0.777	inactive: 0.73
GEVLVYAEDPA [FLNA_Y319_V320A]	inactive: 0.455	inactive: 0.709	inactive: 0.474	inactive: 0.816	inactive: 0.859	inactive: 0.645
SPLEVYVDKSQ [FLNA_Y373_F370L]	inactive: 0.924	inactive: 0.998	inactive: 1	inactive: 0.742	inactive: 0.95	inactive: 0.954
VVEVTYDDVPI [FLNB_Y1308]	inactive: 0.822	inactive: 0.726	inactive: 0.765	inactive: 0.68	inactive: 0.86	inactive: 1.21
VVDVTYDDVPI [FLNB_Y1308_E1305D]	inactive: 0.707	inactive: 0.641	inactive: 0.716	inactive: 0.744	inactive: 0.744	inactive: 0.947
PGLSSYGVPAS [FLNB_Y1530]	inactive: 0.643	inactive: 0.608	inactive: 0.819	inactive: 0.507	inactive: 0.656	inactive: 0.787
GTYVIYVRFSG [FLNB_Y1687_G1691S]	inactive: 0.903	inactive: 0.896	inactive: 0.875	inactive: 0.894	inactive: 0.866	inactive: 0.92
GTFVIYVRFSG [FLNB_Y1687_G1691S_YF]	inactive: 0.427	inactive: 0.645	inactive: 0.621	inactive: 0.506	inactive: 0.489	inactive: 0.805
GPGLVYGVANK [FLNB_Y1833]	inactive: 0.84	inactive: 1.17	inactive: 0.923	inactive: 0.723	inactive: 1.01	inactive: 1.15
RMDGKYACSYT [FLNB_Y704_T703K]	inactive: 0.701	inactive: 0.864	inactive: 0.693	inactive: 0.737	inactive: 0.634	inactive: 1.03
RMDGKYACSFT [FLNB_Y704_T703K_YF]	inactive: 0.709	inactive: 0.993	inactive: 0.841	inactive: 0.755	inactive: 0.803	inactive: 0.889
TYACSYTPVKA [FLNB_Y708]	inactive: 1.11	inactive: 1.85	inactive: 1.11	active: 3.27	inactive: 1.21	inactive: 0.76
KYACSYTPVKA [FLNB_Y708_T703K]	inactive: 1.2	inactive: 2.11	inactive: 1.39	inactive: 3.06	inactive: 1.75	inactive: 1.2
KFACSYTPVKA [FLNB_Y708_T703K_YF]	inactive: 0.906	inactive: 1.21	inactive: 0.898	inactive: 2.55	inactive: 0.786	inactive: 0.812
TYTVSYLPDMS [FLNC_Y1602]	inactive: 0.966	inactive: 1.11	inactive: 1.03	inactive: 1.17	inactive: 0.929	inactive: 0.9
